In ChEMBL document CHEMBL4888484, “Replenishing the malaria drug discovery pipeline: Screening and hit evaluation of the MMV Hit Generation Library 1 (HGL1) against asexual blood stage Plasmodium falciparum ,using a nano luciferase reporter read-out” (2022):
Out of some 150,000 compounds screened, about 540 (0.36%) showed an effect of 50% or more. Some of the results follow.

tested on: Plasmodium falciparum; assay: Primary screen in NF54 nanoGlo assay, in single point, at 2uM, 72h; a lower Z score goes with more inhibition; format: functional, Erythrocyte; settings: timepoint 72 hour

Structure (SMILES)	% Inhibition	Z score
C[C@@H](CNc1ccccc1)NC(=O)c1cccn1C	-7%	0.63
CCN(C(=O)NCCCN(C)c1ccccc1)[C@H]1COC[C@@H]1O	-12%	1.13
c1cc(N2CCCN(c3ccnc(C4CC4)n3)CC2)nc(C2CC2)n1	-43%	5.02
CN(Cc1ccsc1)C(=O)NCCc1cccs1	-12%	1.12
CCCc1noc(C(C)N(C)CC2CCN(CC(C)O)CC2)n1 (stereo not drawn)	2%	-0.15
Cc1nc(CNC(=O)[C@H]2CCN(c3ccc(C(F)(F)F)cn3)C2)no1	-3%	0.45
CCn1cc(Br)c(=O)c(NC(=O)N2CCN(C(C)(C)CC)CC2)c1	0%	-0.04
CC(C)CCNC(=O)[C@@]12CCCC=C1N(C1CCCC1)C(=O)CC2	-15%	1.48
Cc1ccccc1[C@H]1CN(C(=O)c2c(C)nn(C)c2C)C[C@@H]1C(=O)O	-10%	2.19
COc1cccc(NC(=O)NC(C)C2CC3CCC2C3)c1 (stereo not drawn)	-5%	0.72
Cn1nc(-c2ccsc2)cc1NC(=O)NCC(F)(F)F	-16%	2.78
O=C1N[C@]2(CCc3cc(Cl)ccc32)C(=O)N1Cc1ccccn1	-1%	0.11
CN(C)c1ccccc1CN1CCn2c(nnc2C(F)(F)F)C1	-3%	0.64
O=C(CO)N1CCc2[nH]nc(-c3cccc(F)c3)c2C1	-8%	1.57
CC(C)CN(C[C@H]1CN(C(=O)C2CCCC2)CCO1)C(=O)c1ccccc1	-9%	1.16
CC(C)CC(=O)Nc1cc(C2CC2)nn1[C@H]1CCS(=O)(=O)C1	-11%	1.57
Cn1nc(-c2ccccn2)nc1CCCn1cncn1	-12%	1.18
CC(C)(C)[C@H](NC(=O)c1ccc(OCc2ccc(Cl)cc2)cc1)c1nc(-c2ccccc2)no1	-6%	1.05
CC1=NS(=O)(=O)N(C)C=C1C(=O)OCc1cc(F)ccc1F	-8%	1.47
O=C(NCC1(c2cccc(F)c2)CCCCC1)N1CCC[C@H](O)C1	-14%	2.55
CN1N=C(C(=O)N(C)C2CCCCC2)CCC1=O	-13%	1.13

Structure (SMILES)	% Inhibition	Z score
COCCCNC(=O)c1cn(C)c2c(c(C)nn2-c2ccc(F)cc2)c1=O	-3%	0.51
Cc1ccc(C)c(Cn2nnc(C(=O)NCc3ccco3)c2N)c1	-7%	0.94
C[C@H]1CN(C(=O)NCc2ccc(F)cc2)C[C@@H]1c1nc(-c2cccnc2)no1	-8%	0.92
CC(C)C(=O)Nc1cnn(-c2ncncc2N2CCCCC2)c1	-7%	0.8
CN1C[C@H](O)C[C@H]1c1nc(Cc2ccccc2)no1	2%	-0.27
CC1CCCC2CCCN(C(=O)C3CCNC(=O)C3)C12 (stereo not drawn)	-8%	0.97
COc1cc(C(=O)NCC2(C)CCCCCC2)on1	-5%	0.52
O=C1N[C@@H](Cc2ccccc2)C(=O)N1CCN1CCOCC1	-10%	1.25
Cc1ccc(C2(CN(C)Cc3noc4c3CCCC4)CCNCC2)nc1	-5%	0.49
CC(CC(=O)C(C#N)c1ccc(C(F)(F)F)cn1)c1ccccc1 (stereo not drawn)	-1%	0.08
CN(C1CCCC1)S(=O)(=O)c1ccc2c(c1)OCCCO2	-9%	1.33
O=C(CCc1ccc(=O)[nH]c1)Nc1cccc(-c2ccc3c(c2)CCO3)n1	0%	-0.05
COc1ncccc1C(=O)N1CCn2nc3c(c2C1)CCC3	11%	-1.35
Cn1cc(CCNC(=O)N[C@H]2CCCN(c3ccccc3F)C2)cn1	-10%	1.35
OCc1ccccc1-c1ccnc2c1CCCC2	2%	-0.18
C[C@@H](CN1CCOCC1)C(=O)NCC1(CO)CCCC1	-3%	0.53
O=C(NC[C@H](O)C(F)(F)F)c1cc(O)ccn1	-1%	0.17
CCC(CC)n1nc(Nc2nccnc2C#N)cc1C	7%	-0.97
Cc1cc(-c2cc(O)cc(CC[C@H]3CCCCN3)c2)cnc1-n1cnnc1	6%	-1.11
O=C(CN1CCCCCC1)N[C@H]1CCN(Cc2ccccc2)C1	-4%	0.79
c1ccc(CN2CC(c3nc(Cc4cccnc4)no3)C2)nc1	-3%	0.42

Structure (SMILES)	% Inhibition	Z score
C[C@H](c1nc(COCc2ccccc2)no1)C1CC1	0%	0.01
NC(=O)N1CCC[C@H]1C(=O)NC1(C2CCCC2)CC1	-1%	0.1
CN(Cc1ccc(Oc2ccccc2)o1)C[C@H](O)C1CC1	-4%	0.65
NC(=O)c1n[nH]c2ccc(NC(=O)c3nn(-c4ccccc4)c(=O)c4ccccc34)cc12	-3%	0.31
COc1ccc2c(CN3CCC(OCc4cccnc4)CC3)n[nH]c2c1	-5%	0.93
CC(C)(C)[C@H]1CCN(c2nnc(CS(C)(=O)=O)n2CC2CC2)C1	-15%	2.64
COCCN(CCOC)C(=O)c1nc(-c2ccccc2)nc2c1OCO2	8%	-1.02
O=C(c1cc(-c2ccccc2)n[nH]1)N1CCC(N2CCc3sccc3C2)CC1	33%	-5.14
Cc1nn(C(C)(C)C)c2nc(C3CC3)cc(C(=O)N(C)Cc3ccc4c(c3)OCO4)c12	-1%	0.15
CCC[C@H](C)N1CCC(n2cc(CN3CCCCCC3)nn2)CC1	-14%	1.96
COc1ccc(-c2cn(CCN3CCc4ccccc43)nn2)cn1	-7%	0.93
Cc1cccc2c1OCC[C@@H]2NC(=O)c1ccc(-c2ncn[nH]2)cc1	-5%	0.87
C[C@H](NC(=O)c1nccs1)c1ccc(OC(F)(F)F)cc1	-9%	0.84
Cc1ccc(CN(C(=O)c2ccn3nnnc3c2)C2CCCC2)s1	-2%	0.3
CN(C)c1ccc(C(=O)N2C[C@@H]3CC[C@H]2CN(S(=O)(=O)N(C)C)C3)cc1	-17%	1.52
O=C(CCc1ccccc1)Nc1ccc(N2CCN(c3ccccc3F)CC2)c(S(=O)(=O)NCc2ccc3c(c2)OCO3)c1	4%	-0.67
O=C(Cc1ccn[nH]1)NCc1ccc(Cn2ccnc2)cc1	29%	-3.84
Cc1c(Cl)cccc1N1CC[C@@H](C(=O)Nc2cccc(Cl)c2)C1=O	2%	-0.41
Cc1cccc([C@H]2CCCN(C(=O)Nc3ccc(N4CCCC4=O)cc3)C2)c1	1%	-0.18
Cc1ccc(Cn2c(=O)c3nn(C)cc3n3c(=O)n(Cc4ccc(N5CCCC5=O)cc4)nc23)cc1	-8%	1
Cc1nsc(N[C@@H](C)Cc2c(C)noc2C)c1C#N	-10%	1.05

Structure (SMILES)	% Inhibition	Z score
O=C(Nc1ccc2[nH]ncc2c1)C1CCN(C(=O)c2ccco2)CC1	7%	-0.76
COc1ccc([C@@H]2c3cccn3CCCN2Cc2ccc(F)c(Cl)c2)cc1	-7%	0.89
Cc1nc(C)n(C2CN(C(=O)c3nc(C(C)C)oc3C)C2)n1	6%	-1.22
Cc1cccc([C@@H]2CCCN2C(=O)CCCN2C(=O)CN(C)C2=O)c1	-9%	1.19
Cc1cc(C(=O)NCCc2nnc(C)n2C)cc(C)c1F	-15%	2.91
COc1ccc(CNC(=O)Cn2cc(-c3ccccc3)c3ncnc(N4CCOCC4)c32)cc1OC	-10%	1.46
Cc1nn(C(C)C)cc1CNc1cc(F)cc(N(C)C)c1	-5%	1.03
COc1ccc(-c2noc(C[C@H]3CNCCS3(=O)=O)n2)cc1C	0%	0.05
FCC[C@H]1CN(c2nncc3ccccc23)CCO1	0%	0.03
O=C(Cc1c(F)cccc1Cl)N1CCC(N2C(=O)COCC2=O)CC1	12%	-1.57
COC(=O)c1cc(S(=O)(=O)N(C)Cc2ncnn2C)cc(F)c1F	5%	-0.88
CC1CCN(S(=O)(=O)N2CCC(C(=O)N3CCC(Cc4nncn4Cc4ccccc4)CC3)CC2)CC1	-9%	1.05
O=C(c1ccoc1)N1CCC2(CC1)CN(c1cccc(F)c1)[C@@H]2c1ccccc1	0%	-0.01
Cc1ccc(OC[C@H]2c3ccsc3CCN2C(=O)CN(C(=O)c2cccs2)C(C)(C)C)c(C)c1	-3%	0.39
CCN(CC(=O)Nc1ccc2c(c1)OCCO2)CC(=O)Nc1sccc1C#N	-14%	2.14
Cc1ccccc1CNC(=O)CN1CCC2(CCC(=O)N(C3CC3)C2)CC1	-8%	0.91
COc1ccc(CNC(=O)N2CC[C@H](CS(C)(=O)=O)C2)cc1Cl	-5%	1.06
CCc1nccn1CCn1c(=O)n(C(CC)CC)c2ncc(C(=O)O)cc21	-7%	1.02
CO[C@H]1C[C@@H](O)C12CCN(c1ncnc3c1CCC3)CC2	9%	-1.13
Cc1cccc(NC(=O)c2cc(OC(C)C)c3ccoc3c2)n1	-2%	0.35
Cc1ccc(-c2cncc(C(=O)Nc3c(C)n(C)n(-c4ccccc4)c3=O)c2)cc1	3%	-0.44
